Measured values from PubChem BioAssay AID1461 (National Center for Advancing Translational Sciences (NCATS), 2008).
The campaign covered roughly 220,000 compounds. About 2,300 (1%) were called active. Inconclusive results, whose numbers are uncertain, are shown with a selection of clear calls. The call rests on the fitted dose curve; in most records, active means well fitted inhibition curve with a large enough effect; inconclusive means small, poorly fitted or top-dose-only effect, or effect the other way; inactive means no such curve, though single readings can be large or run the other way. Potencies of inconclusive entries are left out as doubtful fits.

biological target: Neuropeptide S receptor (Homo sapiens) (UniProt Q6W5P4); assay: qHTS Assay for Antagonists of the Neuropeptide S Receptor: cAMP Signal Transduction; settings: CHO-NPSR cells, cAMP TR-FRET, antagonist mode; series mostly up to 38.3 µM; further: nearly all actives have a fitted effect of over 50% in size
Potency means the concentration at half of the fitted maximal effect; tags describe the fitted curve by direction and shape.

UniProt Q6W5P4, sequence (Q6W5P4 whole entry, looked up): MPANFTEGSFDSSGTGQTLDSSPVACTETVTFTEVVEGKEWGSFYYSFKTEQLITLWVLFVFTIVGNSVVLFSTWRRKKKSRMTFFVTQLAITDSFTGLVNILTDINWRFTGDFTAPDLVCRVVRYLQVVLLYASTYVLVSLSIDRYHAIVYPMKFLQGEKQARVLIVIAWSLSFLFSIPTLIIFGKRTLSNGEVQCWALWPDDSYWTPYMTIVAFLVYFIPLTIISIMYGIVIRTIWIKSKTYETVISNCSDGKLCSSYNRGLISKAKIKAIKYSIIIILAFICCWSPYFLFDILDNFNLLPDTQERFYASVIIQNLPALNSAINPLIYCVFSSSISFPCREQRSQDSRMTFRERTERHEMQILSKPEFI

| SMILES | Potency |
| --- | --- |
| N#CCc1nc2ccc(S(=O)(=O)N3CCOCC3)cc2s1 | inconclusive [inhibitor, single point] |
| Cc1cccc(CN2C(=O)c3ccccc3Sc3ccc(C(=O)NCCN4CCOCC4)cc32)c1 | inconclusive [inhibitor, single point] |
| CC(C)(C)c1nc(S(=O)(=O)c2ccc(Cl)cc2)c(N2CCOCC2)o1 | inconclusive [inhibitor, full curve, poor fit] |
| O=S(=O)(NCc1ccccc1)c1cccc2nonc12 | inactive |
| Cc1cc(C)cc(NS(=O)(=O)c2ccc(NC(=S)NC(=O)c3ccc(Br)o3)cc2)c1 | inconclusive [inhibitor, partial curve] |
| COC(=O)c1ccccc1NC(=O)COC(=O)/C=C/c1ccco1 | inactive |
| COc1ccccc1OCC(=O)N(Cc1nc(-c2ccccc2)no1)C1CCCCC1 | inconclusive [inhibitor, single point] |
| CC(=O)N1CCC(=NNc2nc3ccccc3s2)CC1 | inactive |
| Cc1ccccc1OCC(=O)Nc1cccc2nsnc12 | inconclusive [activator, full curve, poor fit] |
| COc1cccc(-n2sc3c(c2=S)-c2cc(OC)ccc2NC3(C)C)c1 | inconclusive [inhibitor, single point] |
| O=C(CSc1nnc(NC(=O)c2ccco2)s1)NC1CCCC1 | inconclusive [inhibitor, single point] |
| O=C1C=C(NCc2ccncc2)CC(c2ccccc2)C1 (configuration not stated) | inactive |
| O=C1c2ccccc2NC(c2ccco2)N1O (configuration not stated) | inactive |
| Cc1cc(C2(c3ccc(O)c(C)c3)C(=O)Nc3ccccc32)ccc1O | inconclusive [inhibitor, single point] |
| Cn1c(CCNC(=O)c2ccc(Cl)c(Cl)c2)nnc1SCc1ccc(Cl)c(Cl)c1 | inconclusive [inhibitor, single point] |
| C=CCSc1nc(C)c2cc(C)cc(C)c2n1 | inconclusive [inhibitor, single point] |
| C=CCn1c(SCC(=O)c2ccccc2)nnc1-c1cc2ccccc2o1 | inconclusive [inhibitor, partial curve] |
| CC(NC(=O)CSc1nnc(-c2cccc(S(=O)(=O)N3CCCCC3)c2)o1)C12CC3CC(CC(C3)C1)C2 (configuration not stated) | active: 10 µM |
| COC(=O)Cc1c(C)c2c(O)cc(C)cc2oc1=O | inconclusive [activator, partial curve] |
| CC(C)(C)C1CCC(=NNc2ccc(S(N)(=O)=O)cc2[N+](=O)[O-])CC1 (configuration not stated) | inconclusive [inhibitor, single point] |
| CC(C)NC(=O)CC(c1ccccc1)c1cc(Br)ccc1O (configuration not stated) | inactive |
| CCCCNC(=O)C1CCC(CNc2c(N3CCC(C)CC3)c(=O)c2=O)CC1 (configuration not stated) | inactive |
| COc1ccc(-c2cn[nH]c2-c2ccc(OCc3ccccc3)cc2O)cc1 | inconclusive [inhibitor, single point] |
| CCN(CCCNC(=O)CC(C(=O)N1CCc2ccccc21)n1ccnc1)c1cccc(C)c1 (configuration not stated) | inconclusive [inhibitor, partial curve, poor fit] |

| SMILES | Potency |
| --- | --- |
| Fc1c(F)c(C(F)(F)F)c(F)c(F)c1N/N=C\c1cccs1 | inconclusive [inhibitor, single point] |
| COc1ccc(Nc2ncc3c(n2)CC(c2ccc(C)cc2)CC3=O)cc1 (configuration not stated) | inconclusive [inhibitor, partial curve] |
| COc1ccc(/C=N/NC(=O)c2[nH]ncc2Br)c(OC)c1 | inactive |
| O=S(=O)(c1cc(Cl)ccc1Cl)N1CC2CCCN2c2ccc(C(F)(F)F)cc21 (configuration not stated) | inconclusive [inhibitor, single point] |
| CC(C)(C)C1CCc2onc(C(=O)NCc3ccc(F)cc3)c2C1 (configuration not stated) | inconclusive [inhibitor, single point] |
| O=C1CC(c2ccccc2)n2nc(NC(=O)c3ccccn3)nc2N1 (configuration not stated) | inconclusive [inhibitor, partial curve] |
| CCOc1cccc2sc(Cl)nc12 | inactive |
| Cc1ccc(/C=C(\C#N)c2nc3ccccc3[nH]2)s1 | inconclusive [inhibitor, full curve, poor fit] |
| CCCOC(=O)C(C)n1c(-c2ccccc2)nc2ccccc2c1=O (configuration not stated) | inconclusive [inhibitor, single point] |
| CCn1c(C)nc2cc(C(=O)N/N=C/c3ccc(OC)cc3)ccc21 | inactive |
| Cc1ccc(O)c(C(=O)c2coc(=N)c(C(=O)NC(C)C)c2)c1 | inactive |
| Cc1ccccc1Nc1c(N)c(=O)oc2ccccc12 | inactive |
| CCOC(=O)C(=CNc1cc(Cl)c(-c2ccco2)c(Cl)c1)C(=O)OCC | inconclusive [inhibitor, single point] |
| NC(=O)c1c(-c2cccs2)csc1N | inactive |
| COC(=O)c1ccc(Sc2ccc(Cl)cc2)c(N)c1 | inconclusive [inhibitor, single point] |
| COC(=O)CN(c1nc(C)c(Br)c(OC)n1)S(=O)(=O)c1ccc(C)cc1 | inconclusive [inhibitor, single point] |
| Clc1ccc(CSc2nnc(CN3CCOCC3)n2-c2ccccc2)cc1Cl | inactive |
| COc1ccccc1Oc1nc(-c2ccccc2)cc(C)c1S(C)(=O)=O | inconclusive [inhibitor, single point] |
| O=C(Oc1c(Cl)cc(Cl)c2cccnc12)c1ccco1 | inconclusive [inhibitor, single point] |
| CC(=O)Nc1ccc(C)c([N+](=O)[O-])c1 | inactive |
| O=c1c2ccccc2nc(SCc2nnc(-c3ccccc3)o2)n1-c1ccc(F)cc1F | inconclusive [inhibitor, partial curve] |
| Cc1cccc(N/C(=N\S(=O)(=O)c2ccccc2)C(F)(F)F)c1 | inactive |
| COC(=O)CN1C(c2ccccc2O)Nc2ccc(Br)cc2C1c1ccccc1 (configuration not stated) | inactive |
| Cc1cc(C(F)(F)F)c(C#N)c(SCC(=O)Nc2nc3cc(Br)ccc3s2)n1 | inactive |

| SMILES | Potency |
| --- | --- |
| C/C(=N/NC(=O)CNc1ccc(C)cc1)c1ccc(Br)s1 | inconclusive [inhibitor, single point] |
| CN=C(Nc1cc(C)nn1-c1ccccc1)c1ccccc1F | inconclusive [inhibitor, full curve, poor fit] |
| C/C(=N/NC(=O)CNC(=O)c1cccs1)c1ccco1 | inconclusive [activator, single point] |
| CN(C)c1ccc(C=Nc2ccc(N(C)C)cc2)cc1 | inconclusive [inhibitor, partial curve] |
| [O-][N+]1=c2ccc(Nc3ccccc3)cc2=NC12CCCCC2 | active: 10 µM |
| CCOc1ccc(NS(=O)(=O)c2ccc(NC(=S)NC(=O)CC(C)C)cc2)cc1 | inconclusive [inhibitor, partial curve, poor fit] |
| Cc1ccc(/C=C/C(=O)O)cc1S(=O)(=O)NCCCO | inconclusive [inhibitor, partial curve] |
| CCOC(=O)C(C)N1C(=O)S/C(=C/c2cc(C)n(-c3ccccn3)c2C)C1=O (configuration not stated) | inconclusive [inhibitor, single point] |
| CCc1cccc(CC)c1NC(=O)COC(=O)c1cccc(S(=O)(=O)N2CCc3ccccc3C2)c1 | inactive |
| Cc1c(CCO)c(=O)n(-c2ccccc2)n1S(=O)(=O)c1c(Cl)cc(Cl)cc1Cl | inconclusive [inhibitor, single point] |
| C/C(Cc1ccccc1)=N/NC(=O)CNC(=O)C(c1ccccc1)c1ccccc1 | inconclusive [activator, single point] |
| CCOCCc1c(O)nc(SCC)[nH]c1=O | inactive |
| CN(C)c1ccc(/C=N/NC(=O)c2ccco2)cc1 | inconclusive [inhibitor, partial curve] |
| COc1ccc(NC(=O)c2ccc(-c3ccc(-c4noc(C)n4)cc3C)cc2)cc1N1CCN(C)CC1 | inconclusive [inhibitor, single point] |
| O=C(COc1cccc(F)c1)N1c2ccccc2Sc2ccccc21 | inconclusive [inhibitor, single point] |
| O=c1c(Br)c(Br)cnn1-c1ccccc1 | active: 10 µM |
| O=C(Cc1ccc(Nc2nc3ccc(Br)cc3[nH]2)cc1)NCCc1cccs1 | inconclusive [inhibitor, full curve, poor fit] |
| Cn1c(CO)c(-c2ccccc2)c2cc([N+](=O)[O-])ccc21 | inconclusive [activator, single point] |
| CC1Cc2ccccc2N1C(=O)CSc1nc(-c2ccco2)cc(C(F)(F)F)n1 (configuration not stated) | inconclusive [inhibitor, single point] |
| Cc1cc(Nc2cccc(F)c2)nc(-c2ccccc2O)n1 | inconclusive [inhibitor, single point] |
| Nc1cc(Nc2ccc(Br)cc2)nc(N)n1 | inactive |
| Nc1c(C(=O)NCCc2ccccc2)sc2nc(N3CCOCC3)c3c(c12)CCCC3 | inactive |
| Oc1ccc(-c2n[nH]c(=S)n2Cc2ccco2)cc1 | inconclusive [inhibitor, single point] |
| CC(=O)N1CCN(c2ccc(NC(=O)c3cccc(OCc4ccccc4)c3)cc2)CC1 | inconclusive [inhibitor, full curve, poor fit] |
